Measurements from the supplement of paper PMC3334620.
The full ranking holds about 33,000 sequences; the median of “E-score (-0.5 to 0.5)” is about -0.016, and the highest 2% start at about 0.32. Some of the results follow.

Each sequence was assayed against T1, Stp1 (UniProt B3LFK1) (assay: PBM E-score (8-mer binding enrichment) (E-score (-0.5 to 0.5)); higher = stronger / more preferred TF binding; most listed sequences are background and not binding sites). Settings: protein concentration: 200 nM; construct: GST-full length.
T1 sequence: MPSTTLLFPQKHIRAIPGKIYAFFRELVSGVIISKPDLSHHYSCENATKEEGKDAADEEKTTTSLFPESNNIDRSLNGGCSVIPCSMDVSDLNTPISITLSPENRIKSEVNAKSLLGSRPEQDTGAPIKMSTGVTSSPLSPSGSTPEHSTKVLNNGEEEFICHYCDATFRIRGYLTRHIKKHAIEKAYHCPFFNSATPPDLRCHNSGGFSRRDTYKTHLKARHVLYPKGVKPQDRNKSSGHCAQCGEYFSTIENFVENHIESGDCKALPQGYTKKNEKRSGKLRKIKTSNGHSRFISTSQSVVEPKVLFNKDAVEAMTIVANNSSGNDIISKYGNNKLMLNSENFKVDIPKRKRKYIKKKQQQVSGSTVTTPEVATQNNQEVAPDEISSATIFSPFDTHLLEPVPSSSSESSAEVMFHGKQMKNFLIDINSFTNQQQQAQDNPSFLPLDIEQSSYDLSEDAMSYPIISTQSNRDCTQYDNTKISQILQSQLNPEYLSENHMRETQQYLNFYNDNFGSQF
Summary of the method: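 Bound GST-tagged yeast transcription factors, applied at about 100-200 nM to double-stranded universal all-10-mer Agilent arrays, were detected with fluorescent anti-GST. Scans were normalised with masliner. A modified Wilcoxon-Mann-Whitney statistic, the E-score, was assigned to each ungapped eight-base word pooled with its reverse complement by the Universal PBM Analysis Suite.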

Going from CGAATTCG to GAACGCGA, the “PBM E-score” value falls from 0.0756 to -0.204.

First: AATGACGA
Second: CCTTGTCA
The “PBM E-score” value of the first is higher: -0.00546 for the first, -0.0309 for the second.

First: AGCGCTCA
Second: AAATGTGA
The “PBM E-score” value of the first is lower: -0.122 for the first, -0.0279 for the second.

Going from CCTGAATA to CACACAGC, the “PBM E-score” value rises from 0.0967 to 0.155.

Going from AATATTGC to AATTGCGT, the “PBM E-score” value falls from 0.186 to 0.138.

Going from CATAATAA to AGATACTG, the “PBM E-score” value falls from 0.134 to 0.123.

Compared with ACTCTCAC, AGCTGGGC is lower in “PBM E-score” value: 0.0334 for the first, -0.089 for the second.

Compared with GCAGTCAA, GATCATTA is higher in “PBM E-score” value: -0.2 for the first, 0.0868 for the second.

Going from CGAACGCC to AGCGGAAT, the “PBM E-score” value falls from 0.228 to 0.0315.

First: CCAAATGA
Second: CACGATAG
The “PBM E-score” value of the first is higher: 0.0462 for the first, -0.0449 for the second.

Compared with ACACGGTC, AGTTACAG is lower in “PBM E-score” value: 0.0489 for the first, 0.00907 for the second.

First: AATATTTA
Second: ATGCACTG
The “PBM E-score” value of the first is higher: 0.225 for the first, -0.15 for the second.

Going from CTAAAAAG to CAGTGTCG, the “PBM E-score” value falls from 0.135 to -0.191.

Going from GCCAAGGC to GGCATTGA, the “PBM E-score” value rises from -0.059 to 0.268.

Compared with AAATTCGA, AGATCGAC is lower in “PBM E-score” value: 0.0925 for the first, -0.141 for the second.

Compared with TCCACACA, CGTATAGC is lower in “PBM E-score” value: 0.0753 for the first, 0.0616 for the second.

Going from AGAACAAT to CACTACTC, the “PBM E-score” value falls from 0.163 to 0.0699.

Going from ATTGGGAG to TAGCAATA, the “PBM E-score” value rises from -0.179 to 0.0285.

First: ACCAAAGA
Second: CCAACACC
The “PBM E-score” value of the first is higher: 0.165 for the first, -0.208 for the second.

Going from AAAACTCC to AAAGTGTG, the “PBM E-score” value rises from -0.234 to -0.00826.

First: GTCGTAAA
Second: AGCTATCA
The “PBM E-score” value of the first is higher: 0.0706 for the first, -0.0431 for the second.

Going from GTCCAGAC to AGCAACAC, the “PBM E-score” value rises from -0.253 to 0.0741.

Going from GGTCCACC to AGTCTACG, the “PBM E-score” value falls from -0.214 to -0.299.

First: CAGGGTAG
Second: CCGGGCTA
The “PBM E-score” value of the first is higher: -0.2 for the first, -0.215 for the second.

First: CTAGTCAC
Second: TACAAGAA
The “PBM E-score” value of the first is lower: -0.148 for the first, 0.0192 for the second.

Compared with GTAAGCAC, AACGGTAA is lower in “PBM E-score” value: 0.0535 for the first, -0.0192 for the second.

First: ACTCCCGA
Second: GTAGGGTA
The “PBM E-score” value of the first is lower: -0.302 for the first, 0.0059 for the second.

Compared with GCTACTGA, CAGTGACC is lower in “PBM E-score” value: -0.0112 for the first, -0.214 for the second.

First: CCTGCAAA
Second: GAAAGAAA
The “PBM E-score” value of the first is lower: -0.176 for the first, 0.172 for the second.

First: AGATTTAA
Second: AAGGTAGA
The “PBM E-score” value of the first is higher: 0.0854 for the first, -0.123 for the second.

Going from AACTACCC to ATACGTGC, the “PBM E-score” value rises from -0.312 to 0.158.

First: GTTGACAA
Second: CACAGGTG
The “PBM E-score” value of the first is higher: 0.283 for the first, -0.154 for the second.

Compared with CTGCCCAA, ATGCACCG is higher in “PBM E-score” value: -0.177 for the first, -0.0364 for the second.

Going from AAAGAATT to CCGCACAA, the “PBM E-score” value rises from 0.0966 to 0.285.

First: GAGTTGCA
Second: CTCGAATA
The “PBM E-score” value of the first is lower: -0.127 for the first, -0.0666 for the second.

Going from ACACGCGC to CTAAGGCA, the “PBM E-score” value rises from 0.199 to 0.253.

Going from AATCGTAG to CGTCCCAC, the “PBM E-score” value falls from 0.02 to -0.139.

Compared with GACACGAC, ACGTGACT is lower in “PBM E-score” value: 0.0333 for the first, -0.206 for the second.

Going from CCTCGCTC to TGGTTCAA, the “PBM E-score” value falls from 0.165 to 0.104.

Compared with CCTAGCAA, AATCGACT is lower in “PBM E-score” value: -0.0594 for the first, -0.205 for the second.

Going from CTAGGAGC to CAATAGCC, the “PBM E-score” value rises from -0.171 to -0.0108.

First: CAAAGAGG
Second: GATTCATA
The “PBM E-score” value of the first is lower: 0.00242 for the first, 0.0474 for the second.

First: ACTATAAG
Second: GAGGTGGC
The “PBM E-score” value of the first is higher: 0.056 for the first, -0.0295 for the second.

Compared with GCCCCCAA, ACATTGGT is higher in “PBM E-score” value: -0.354 for the first, -0.107 for the second.

First: GGTAGAAC
Second: ATGTGGGG
The “PBM E-score” value of the first is higher: -0.164 for the first, -0.262 for the second.

First: AGCTGTAG
Second: AATGACTA
The “PBM E-score” value of the first is higher: -0.117 for the first, -0.203 for the second.

Going from AAGATGAT to CGACCGCA, the “PBM E-score” value falls from 0.0573 to -0.129.

Compared with GTGCTAAC, AATTTACC is higher in “PBM E-score” value: -0.0443 for the first, 0.052 for the second.

Compared with CTCCCGTA, AGCCGAAA is higher in “PBM E-score” value: -0.0725 for the first, 0.0823 for the second.

First: GGCTTGCA
Second: CGCTGACA
The “PBM E-score” value of the first is higher: 0.0669 for the first, 0.0619 for the second.

First: TGGATTAA
Second: CTGACACC
The “PBM E-score” value of the first is higher: 0.0615 for the first, -0.106 for the second.

Compared with ACAATGCT, ACGGACCA is higher in “PBM E-score” value: -0.0829 for the first, 0.159 for the second.

First: ACATAGAG
Second: CAGGAAGA
The “PBM E-score” value of the first is lower: -0.134 for the first, -7e-05 for the second.

Going from ACGTCTGA to CGTGCCTC, the “PBM E-score” value rises from -0.0596 to 0.398.

Going from GCACTTAC to TAAGGACA, the “PBM E-score” value rises from 0.044 to 0.146.

Going from GAACTGAA to AGTCCGGC, the “PBM E-score” value falls from 0.0626 to -0.043.

Going from ATCATATA to CCACAATC, the “PBM E-score” value falls from 0.171 to -0.168.

Going from CTCCTATA to CTTCCAGC, the “PBM E-score” value rises from -0.118 to -0.0829.

Compared with TCGAAACA, CTCCTCAG is lower in “PBM E-score” value: 0.116 for the first, -0.248 for the second.

Compared with GTCATCGA, TCCGTCGA is higher in “PBM E-score” value: -0.152 for the first, -0.0144 for the second.

Compared with ACTCGAGA, CAGGGGCC is lower in “PBM E-score” value: 0.0305 for the first, -0.151 for the second.

Going from GCGGGCAC to CTATAAGA, the “PBM E-score” value falls from 0.142 to -0.0839.

Compared with ACCACCAG, GCCCTTAC is lower in “PBM E-score” value: -0.0367 for the first, -0.163 for the second.

Compared with CTCGAGTA, CTTGTAAC is higher in “PBM E-score” value: 0.0278 for the first, 0.203 for the second.

First: AGGTTACG
Second: AGAGGTCG
The “PBM E-score” value of the first is higher: -0.0798 for the first, -0.096 for the second.

Going from AGCTTTTC to CGGAGGTA, the “PBM E-score” value rises from -0.209 to -0.168.

Compared with GGCGCGCA, TCCTGCGA is lower in “PBM E-score” value: 0.318 for the first, -0.00958 for the second.

Going from ATGCTTTA to ATTTCAGC, the “PBM E-score” value falls from 0.0367 to -0.0721.

First: CTGACATC
Second: CTTTTGGC
The “PBM E-score” value of the first is higher: -0.00511 for the first, -0.0246 for the second.

Going from AATGCAAC to ATACTTAA, the “PBM E-score” value rises from 0.0268 to 0.0997.

Compared with TAATTCGA, AATACTTA is higher in “PBM E-score” value: 0.0127 for the first, 0.0613 for the second.

Going from TACGAGGA to CCGCAGTA, the “PBM E-score” value rises from -0.14 to 0.0872.

Going from ACATTAGT to GTAAGCAA, the “PBM E-score” value rises from -0.012 to 0.098.

First: ACCTGGGA
Second: CAGTTTAA
The “PBM E-score” value of the first is lower: -0.202 for the first, 0.0106 for the second.

First: GAGGTACC
Second: CTGCCATC
The “PBM E-score” value of the first is lower: -0.211 for the first, -0.103 for the second.

First: AAGTGGTC
Second: CGCATCTA
The “PBM E-score” value of the first is lower: -0.0657 for the first, 0.11 for the second.

Compared with CATGTCCC, AAATTATG is higher in “PBM E-score” value: -0.149 for the first, 0.146 for the second.

First: ATTCTGTA
Second: AGAAGTAA
The “PBM E-score” value of the first is lower: -0.0804 for the first, 0.167 for the second.

Compared with CGACACCC, ACCCGCTA is higher in “PBM E-score” value: -0.329 for the first, -0.213 for the second.

Going from AACGTGAC to CGGATTGA, the “PBM E-score” value falls from -0.0663 to -0.0976.

First: CGGTAGAA
Second: ATTGACGG
The “PBM E-score” value of the first is lower: -0.0973 for the first, -0.0563 for the second.

Going from TGCAATAA to GATCAGCC, the “PBM E-score” value falls from 0.162 to -0.183.

Going from CCGTTAAG to AATGATGC, the “PBM E-score” value rises from 0.0535 to 0.108.

First: AGCAAAAC
Second: AATCAGTG
The “PBM E-score” value of the first is higher: -0.0569 for the first, -0.131 for the second.

Going from AGCGGATC to AGTTTGGG, the “PBM E-score” value rises from 0.00559 to 0.0216.

Compared with GGTTGACA, ACATAACT is higher in “PBM E-score” value: -0.0134 for the first, 0.0357 for the second.
